Measurements published in PMC12820563.
This is one part of the list. The list includes weakly bound sequences.

Target: T1, MBP-FoxP3dN (UniProt Q99JB6)
T1 sequence: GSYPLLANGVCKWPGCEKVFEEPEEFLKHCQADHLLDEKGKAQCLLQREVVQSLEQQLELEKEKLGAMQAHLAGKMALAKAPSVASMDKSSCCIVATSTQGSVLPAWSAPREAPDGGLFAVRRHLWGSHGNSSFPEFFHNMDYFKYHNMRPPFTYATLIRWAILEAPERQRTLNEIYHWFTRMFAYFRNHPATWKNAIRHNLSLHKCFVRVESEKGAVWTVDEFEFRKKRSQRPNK
Experiment: PD-seq (MBP pull-down with sequencing)
Conditions: 20 mM Tris-HCl pH 7.5, 100 mM NaCl, 1.5 mM MgCl2, 0.4 uM protein, 0.1 uM dsDNA library, 30 min, room temperature, amylose pull-down; high values mean tight binding; double strand, one strand shown

Sequence | binding signal (RPM ratio (pull-down/input))
GATGATTGTTCTCCCAGCTGATGAATTGCCCGGTTCGAGTAAACAAATTTTCCTAATCTTTCTGTTCAAGCGCCATCTAC | 0.427
GATGATTGTTCTCCCAGCTGATGAATTGGATACCTCGAGTAAACAAATTTTCCTAATCTTTCTGTTCAAGCGCCATCTAC | 0.525
GATGATTGTTCTCCCAGCTGATGAATTAACGCCCTCGAGTAAACAAATTTTCCTAATCTTTCTGTTCAAGCGCCATCTAC | 0.646
GATGATTGTTCTCCCAGCTGATGAATTGATGAAATCGAGTAAACAAATTTTCCTAATCTTTCTGTTCAAGCGCCATCTAC | 0.352
GATGATTGTTCTCCCAGCTGATGAATTACCTCGCTCGAGTAAACAAATTTTCCTAATCTTTCTGTTCAAGCGCCATCTAC | 0.307
GATGATTGTTCTCCCAGCTGATGAATTCTGAACGTCGAGTAAACAAATTTTCCTAATCTTTCTGTTCAAGCGCCATCTAC | 0.307
GATGATTGTTCTCCCAGCTGATGAATTGTCATCCTCGAGTAAACAAATTTTCCTAATCTTTCTGTTCAAGCGCCATCTAC | 0.941
GATGATTGTTCTCCCAGCTGATGAATTCCTCCTATCGAGTAAACAAATTTTCCTAATCTTTCTGTTCAAGCGCCATCTAC | 0.288
GATGATTGTTCTCCCAGCTGATGAATTTATGATGTCGAGTAAACAAATTTTCCTAATCTTTCTGTTCAAGCGCCATCTAC | 3.91
GATGATTGTTCTCCCAGCTGATGAATTAAGCATGTCGAGTAAACAAATTTTCCTAATCTTTCTGTTCAAGCGCCATCTAC | 5.08
GATGATTGTTCTCCCAGCTGATGAATTAGCAGTTTCGAGTAAACAAATTTTCCTAATCTTTCTGTTCAAGCGCCATCTAC | 0.603
GATGATTGTTCTCCCAGCTGATGAATTATAGGCATCGAGTAAACAAATTTTCCTAATCTTTCTGTTCAAGCGCCATCTAC | 0.944
GATGATTGTTCTCCCAGCTGATGAATTGTACAGATCGAGTAAACAAATTTTCCTAATCTTTCTGTTCAAGCGCCATCTAC | 0.319
GATGATTGTTCTCCCAGCTGATGAATTTGGTTGCTCGAGTAAACAAATTTTCCTAATCTTTCTGTTCAAGCGCCATCTAC | 2.96
GATGATTGTTCTCCCAGCTGATGAATTAGGGCATTCGAGTAAACAAATTTTCCTAATCTTTCTGTTCAAGCGCCATCTAC | 5.05
GATGATTGTTCTCCCAGCTGATGAATTCGACCAATCGAGTAAACAAATTTTCCTAATCTTTCTGTTCAAGCGCCATCTAC | 0.27
GATGATTGTTCTCCCAGCTGATGAATTTACACATTCGAGTAAACAAATTTTCCTAATCTTTCTGTTCAAGCGCCATCTAC | 0.808
GATGATTGTTCTCCCAGCTGATGAATTGCGGCGTTCGAGTAAACAAATTTTCCTAATCTTTCTGTTCAAGCGCCATCTAC | 1.91
GATGATTGTTCTCCCAGCTGATGAATTGTTCAACTCGAGTAAACAAATTTTCCTAATCTTTCTGTTCAAGCGCCATCTAC | 0.485
GATGATTGTTCTCCCAGCTGATGAATTTAGCGTGTCGAGTAAACAAATTTTCCTAATCTTTCTGTTCAAGCGCCATCTAC | 4.2
GATGATTGTTCTCCCAGCTGATGAATTTTGACAGTCGAGTAAACAAATTTTCCTAATCTTTCTGTTCAAGCGCCATCTAC | 0.594

Sequence | binding signal (RPM ratio (pull-down/input))
GATGATTGTTCTCCCAGCTGATGAATTAATCAGCTCGAGTAAACAAATTTTCCTAATCTTTCTGTTCAAGCGCCATCTAC | 0.347
GATGATTGTTCTCCCAGCTGATGAATTAAGGAGCTCGAGTAAACAAATTTTCCTAATCTTTCTGTTCAAGCGCCATCTAC | 0.186
GATGATTGTTCTCCCAGCTGATGAATTCCGTTTATCGAGTAAACAAATTTTCCTAATCTTTCTGTTCAAGCGCCATCTAC | 3.08
GATGATTGTTCTCCCAGCTGATGAATTGGTCAGCTCGAGTAAACAAATTTTCCTAATCTTTCTGTTCAAGCGCCATCTAC | 0.344
GATGATTGTTCTCCCAGCTGATGAATTACCCGGCTCGAGTAAACAAATTTTCCTAATCTTTCTGTTCAAGCGCCATCTAC | 0.196
GATGATTGTTCTCCCAGCTGATGAATTACGCCAGTCGAGTAAACAAATTTTCCTAATCTTTCTGTTCAAGCGCCATCTAC | 2.27
GATGATTGTTCTCCCAGCTGATGAATTTCACATGTCGAGTAAACAAATTTTCCTAATCTTTCTGTTCAAGCGCCATCTAC | 0.401
GATGATTGTTCTCCCAGCTGATGAATTGGTGTATTCGAGTAAACAAATTTTCCTAATCTTTCTGTTCAAGCGCCATCTAC | 3.3
GATGATTGTTCTCCCAGCTGATGAATTACGGTTATCGAGTAAACAAATTTTCCTAATCTTTCTGTTCAAGCGCCATCTAC | 1.12
GATGATTGTTCTCCCAGCTGATGAATTATTCCAGTCGAGTAAACAAATTTTCCTAATCTTTCTGTTCAAGCGCCATCTAC | 0.274
GATGATTGTTCTCCCAGCTGATGAATTAAAACAATCGAGTAAACAAATTTTCCTAATCTTTCTGTTCAAGCGCCATCTAC | 1.47
GATGATTGTTCTCCCAGCTGATGAATTATCCTGTTCGAGTAAACAAATTTTCCTAATCTTTCTGTTCAAGCGCCATCTAC | 0.313
GATGATTGTTCTCCCAGCTGATGAATTGTTAGGGTCGAGTAAACAAATTTTCCTAATCTTTCTGTTCAAGCGCCATCTAC | 0.936
GATGATTGTTCTCCCAGCTGATGAATTAATATATTCGAGTAAACAAATTTTCCTAATCTTTCTGTTCAAGCGCCATCTAC | 0.844
GATGATTGTTCTCCCAGCTGATGAATTACGGCAGTCGAGTAAACAAATTTTCCTAATCTTTCTGTTCAAGCGCCATCTAC | 0.438
GATGATTGTTCTCCCAGCTGATGAATTATCCACCTCGAGTAAACAAATTTTCCTAATCTTTCTGTTCAAGCGCCATCTAC | 0.22
GATGATTGTTCTCCCAGCTGATGAATTAGCTTTCTCGAGTAAACAAATTTTCCTAATCTTTCTGTTCAAGCGCCATCTAC | 2.83
GATGATTGTTCTCCCAGCTGATGAATTGGAAGGTTCGAGTAAACAAATTTTCCTAATCTTTCTGTTCAAGCGCCATCTAC | 0.253
GATGATTGTTCTCCCAGCTGATGAATTGCAAGATTCGAGTAAACAAATTTTCCTAATCTTTCTGTTCAAGCGCCATCTAC | 0.566
GATGATTGTTCTCCCAGCTGATGAATTGCCCTGTTCGAGTAAACAAATTTTCCTAATCTTTCTGTTCAAGCGCCATCTAC | 0.494
GATGATTGTTCTCCCAGCTGATGAATTGCGGGCCTCGAGTAAACAAATTTTCCTAATCTTTCTGTTCAAGCGCCATCTAC | 0.785

Sequence | binding signal (RPM ratio (pull-down/input))
GATGATTGTTCTCCCAGCTGATGAATTATGTAGCTCGAGTAAACAAATTTTCCTAATCTTTCTGTTCAAGCGCCATCTAC | 2.18
GATGATTGTTCTCCCAGCTGATGAATTAAATACGTCGAGTAAACAAATTTTCCTAATCTTTCTGTTCAAGCGCCATCTAC | 0.388
GATGATTGTTCTCCCAGCTGATGAATTGTCCTCTTCGAGTAAACAAATTTTCCTAATCTTTCTGTTCAAGCGCCATCTAC | 0.405
GATGATTGTTCTCCCAGCTGATGAATTTTGGACATCGAGTAAACAAATTTTCCTAATCTTTCTGTTCAAGCGCCATCTAC | 0.502
GATGATTGTTCTCCCAGCTGATGAATTACGGGGCTCGAGTAAACAAATTTTCCTAATCTTTCTGTTCAAGCGCCATCTAC | 0.363
GATGATTGTTCTCCCAGCTGATGAATTACTCACTTCGAGTAAACAAATTTTCCTAATCTTTCTGTTCAAGCGCCATCTAC | 0.403
GATGATTGTTCTCCCAGCTGATGAATTCCGCGCTTCGAGTAAACAAATTTTCCTAATCTTTCTGTTCAAGCGCCATCTAC | 1.07
GATGATTGTTCTCCCAGCTGATGAATTGTTAAAATCGAGTAAACAAATTTTCCTAATCTTTCTGTTCAAGCGCCATCTAC | 0.291
GATGATTGTTCTCCCAGCTGATGAATTGGCATCATCGAGTAAACAAATTTTCCTAATCTTTCTGTTCAAGCGCCATCTAC | 3.24
GATGATTGTTCTCCCAGCTGATGAATTTCTGCCGTCGAGTAAACAAATTTTCCTAATCTTTCTGTTCAAGCGCCATCTAC | 0.478
GATGATTGTTCTCCCAGCTGATGAATTAGACATCTCGAGTAAACAAATTTTCCTAATCTTTCTGTTCAAGCGCCATCTAC | 0.795
GATGATTGTTCTCCCAGCTGATGAATTTCTTGGTTCGAGTAAACAAATTTTCCTAATCTTTCTGTTCAAGCGCCATCTAC | 0.692
GATGATTGTTCTCCCAGCTGATGAATTTCTAATGTCGAGTAAACAAATTTTCCTAATCTTTCTGTTCAAGCGCCATCTAC | 0.33
GATGATTGTTCTCCCAGCTGATGAATTCGTGACATCGAGTAAACAAATTTTCCTAATCTTTCTGTTCAAGCGCCATCTAC | 0.658
GATGATTGTTCTCCCAGCTGATGAATTCCATGTATCGAGTAAACAAATTTTCCTAATCTTTCTGTTCAAGCGCCATCTAC | 0.914
GATGATTGTTCTCCCAGCTGATGAATTTCATAACTCGAGTAAACAAATTTTCCTAATCTTTCTGTTCAAGCGCCATCTAC | 0.332
GATGATTGTTCTCCCAGCTGATGAATTCGGGCCGTCGAGTAAACAAATTTTCCTAATCTTTCTGTTCAAGCGCCATCTAC | 0.35
GATGATTGTTCTCCCAGCTGATGAATTGTGGAAATCGAGTAAACAAATTTTCCTAATCTTTCTGTTCAAGCGCCATCTAC | 0.46
GATGATTGTTCTCCCAGCTGATGAATTTCTGGACTCGAGTAAACAAATTTTCCTAATCTTTCTGTTCAAGCGCCATCTAC | 0.192
GATGATTGTTCTCCCAGCTGATGAATTGGCGGGCTCGAGTAAACAAATTTTCCTAATCTTTCTGTTCAAGCGCCATCTAC | 0.287
GATGATTGTTCTCCCAGCTGATGAATTTCTGCTTTCGAGTAAACAAATTTTCCTAATCTTTCTGTTCAAGCGCCATCTAC | 0.795
